{"source": "PubChem BioAssay AID493208", "about": "(National Center for Advancing Translational Sciences (NCATS), 2011)", "note": "In all, about 44,000 compounds went through this assay and about 340 (0.77%) were called active. The shares of active, inactive and inconclusive entries below differ from those in the screen. Calls come from the whole dose curve; as a rule, active = well fitted inhibition curve with a large enough effect; inconclusive = small, poorly fitted or top-dose-only effect; inactive = flat fitted curve, though single readings scatter. No potency is given beside an inconclusive call; the fits are too rough. Potency is the fitted concentration of half-maximal effect; tags give direction and shape of the fitted curve."}
{"assay": "Acumen qHTS Assay for Inhibitors of the mTORC1 Signaling Pathway in MEF (Tsc2-/-, p53-/-) Cells: Sytravon; note: nearly all actives have a fitted effect of over 50% in size", "conditions": "phospho-rpS6 immunofluorescence/PI, 24 h; series mostly up to 38.3 µM", "how_it_was_run": "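Readout is phospho-S6 Alexa 488 signal normalized to PI per well, reported as % active cells with thresholds set from rapamycin (7.5 nM) and DMSO controls. Cells: Tsc2-/-, p53-/- MEFs, 24 hrs compound at 37 C; PI cell number serves as viability.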"}
{"molecule": "CCn1cc2nc(SCC(=O)Nc3cccc(Cl)c3C)n(Cc3ccc(Cl)cc3)c(=O)c2n1", "Potency": "inconclusive [falling, partial curve, poor fit]"}
{"molecule": "Cc1ccc(S(=O)(=O)c2nc(-c3ccco3)oc2SCC(=O)c2ccc(Cl)cc2)cc1", "Potency": "inconclusive [falling, single point]"}
{"molecule": "COc1cccc(CNC(=O)Nc2ccc3c(c2)N(C)C(=O)c2ccccc2S3)c1", "Potency": "inactive"}
{"molecule": "CC(C)CN(CC(C)C)c1nnc(NC(=O)Nc2cccc(C(F)(F)F)c2)s1", "Potency": "inconclusive [falling, partial curve, poor fit]"}
{"molecule": "CCOc1ccc(CNC(=O)c2ccc(Sc3ccc(C)cc3)c(N)c2)cc1OC", "Potency": "inconclusive [falling, partial curve, poor fit]"}
{"molecule": "COc1cccc(NC(=O)Cn2c(=O)n(-c3ccccc3)c(=O)c3ccc(C(=O)NCc4ccc5c(c4)OCO5)cc32)c1", "Potency": "inactive"}
{"molecule": "Cc1ccc(N(CC(O)Cn2c3ccccc3c3ccccc32)S(=O)(=O)c2ccc(F)cc2)cc1", "note": "(configuration not stated)", "Potency": "inconclusive [falling, single point]"}
{"molecule": "COc1ccc(CNCCC(c2ccc(C)cc2)c2ccco2)cc1", "note": "(configuration not stated)", "Potency": "inconclusive [falling, single point]"}
{"molecule": "Nc1ccc2oc(-c3ccccc3Br)nc2c1", "Potency": "inactive"}
{"molecule": "Cc1ccc(-n2nc(C)c(C(=O)NCCCN3CCN(c4cccc(Cl)c4)CC3)c2-n2cccc2)cc1", "Potency": "inconclusive [falling, single point]"}
{"molecule": "Cc1ccc(S(=O)(=O)Nc2cccc(-c3ccc(N4CCCC4)nn3)c2)c(C)c1", "Potency": "inactive"}
{"molecule": "COCCn1c(C)cc(O)c(C(c2ccccc2Cl)N2CCCCC2)c1=O", "note": "(configuration not stated)", "Potency": "inconclusive [falling, full curve, poor fit]"}
{"molecule": "CCCN1CCN(CCCNC(=O)c2cc3c(s2)-c2ccccc2OC3)CC1", "Potency": "inconclusive [falling, single point]"}
{"molecule": "COc1ccccc1CCNC(=O)C(=O)NCC(c1cccnc1)N1CCN(c2ccccc2)CC1", "note": "(configuration not stated)", "Potency": "inconclusive [falling, single point]"}
{"molecule": "Cc1ccc(C(=O)Nc2ccc3oc(-c4cc(Br)ccc4Cl)nc3c2)cc1", "Potency": "inconclusive [falling, single point]"}
{"molecule": "CCN1C(=O)c2ccccc2Sc2ccc(NC(=O)c3cccc(C)c3)cc21", "Potency": "inconclusive [falling, partial curve, poor fit]"}
{"molecule": "Cn1nnnc1SCCCNCc1ccccc1OCc1ccc(F)cc1", "Potency": "inconclusive [falling, single point]"}
{"molecule": "COc1ccccc1NC(=O)c1c(NC(=O)COc2ccccc2)sc2c1CCCCC2", "Potency": "inconclusive [falling, single point]"}
{"molecule": "O=C(Nc1cccc(Cl)c1)c1ccc2c(c1)CCN2S(=O)(=O)c1ccccc1", "Potency": "inconclusive [falling, partial curve, poor fit]"}
{"molecule": "Cc1ccc(-n2c(=O)[nH]c3cc(C(=O)NCc4ccccc4)ccc3c2=O)cc1", "Potency": "inconclusive [falling, full curve, poor fit]"}
{"molecule": "COc1ccc(CNCCC(c2ccc3c(c2)OCO3)c2ccccc2OC)cc1", "note": "(configuration not stated)", "Potency": "inconclusive [falling, single point]"}
{"molecule": "COc1ccc(C2=C(N3CCN(c4cccc(C)c4)C(C)C3)c3ccccc3C2=O)cc1", "note": "(configuration not stated)", "Potency": "inconclusive [falling, full curve]"}
{"molecule": "Cc1ccc(CCNC(=O)c2c3c(nc4ccccc24)C(=O)N(C2CCCCC2)C3)cc1", "Potency": "inconclusive [falling, single point]"}
{"molecule": "Clc1cccc(N2CCN(c3ncnc4c3nc3n4CCCC3)CC2)c1", "Potency": "inactive"}
{"molecule": "Brc1ccc(CNCCCSc2nnnn2-c2ccccc2)cc1", "Potency": "inconclusive [falling, single point]"}
{"molecule": "CCN1CCOC(=O)C1CC(=O)Nc1cccc(OC)c1", "note": "(configuration not stated)", "Potency": "active: 20.7 µM"}
{"molecule": "C#CCn1c(/C=C/c2ccc(Cl)cc2)nc2ccccc21", "Potency": "inactive"}
{"molecule": "CCC(C(=O)N1CCN(c2cc(Cl)ccc2C)CC1)n1nc(C)c2sc3ccccc3c2c1=O", "note": "(configuration not stated)", "Potency": "inconclusive [falling, partial curve]"}
{"molecule": "Fc1cccc(Cl)c1CNc1n[nH]c(-c2ccco2)n1", "Potency": "inactive"}
{"molecule": "CC1C(=O)Nc2ccc(S(=O)(=O)Nc3ccccc3Br)cc2NC1=O", "note": "(configuration not stated)", "Potency": "inconclusive [falling, partial curve]"}
{"molecule": "CCCCN(C)CC(O)Cn1cc(/C=C/C(=O)c2ccc(OC)c(OC)c2)c2ccccc21", "note": "(configuration not stated)", "Potency": "inconclusive [falling, single point]"}
{"molecule": "CCCn1ccc2c(OCC(=O)NCc3ccc(F)cc3)cccc2c1=O", "Potency": "inactive"}
{"molecule": "CCCCc1nn2c(=O)cc(COC(=O)c3cccc(NC(=O)c4cccc(C)c4)c3)nc2s1", "Potency": "inactive"}
{"molecule": "Cc1ccc(CN2CCCn3nc(C(=O)NCc4ccccc4Cl)cc3C2=O)cc1", "Potency": "inconclusive [falling, single point]"}
{"molecule": "Cc1ccc(NC(=O)Cn2nc(-c3ccc(F)cc3)c3cnc4ccc(C)cc4c32)cc1", "Potency": "inconclusive [falling, full curve, poor fit]"}
{"molecule": "O=C(CSc1nc2c([nH]c3ccccc32)c(=O)n1-c1ccc(Cl)cc1)NCc1ccccc1", "Potency": "inconclusive [falling, single point]"}
{"molecule": "CCOc1cc(CNCCSc2nnnn2C)ccc1OCc1ccc(Cl)cc1Cl", "Potency": "inconclusive [falling, single point]"}
{"molecule": "COc1ccccc1-c1cc(C(F)(F)F)nc(S(=O)(=O)CCCC(=O)Nc2ccccc2F)n1", "Potency": "active: 16.5 µM"}
{"molecule": "COc1cc2c(C(=O)N3CCN(c4cccc(Cl)c4)CC3)cn(C)c(=O)c2cc1OC", "Potency": "inconclusive [falling, full curve, poor fit]"}
{"molecule": "CCOc1ccc(NC(=O)NC(C)c2c(-n3cccc3)sc3c2CCN(CC)C3)cc1", "note": "(configuration not stated)", "Potency": "inactive"}
{"molecule": "O=C(Nc1ccc(Br)cc1F)c1cc(S(=O)(=O)NC2CCCC2)ccc1F", "Potency": "inconclusive [falling, single point]"}
{"molecule": "O=C(Nc1nnc(SCc2cc(=O)c3ccccc3[nH]2)s1)c1ccccc1", "Potency": "inconclusive [falling, single point]"}
{"molecule": "Cc1ccc2cc3cc(C(=O)N4CCN(c5cccc(C(F)(F)F)c5)CC4)sc3nc2c1", "Potency": "inactive"}
{"molecule": "CCOC(=O)c1cc(-c2ccccc2)n(CCC(=O)Nc2ccc(C(F)(F)F)cc2)c1C", "Potency": "inconclusive [falling, single point]"}
{"molecule": "O=C(NCCn1cc(SCc2cccc(F)c2)c2ccccc21)c1cccc(C(F)(F)F)c1", "Potency": "inconclusive [falling, full curve]"}
{"molecule": "CCOC(=O)c1ccccc1Nc1cc(C)nc2nc(-c3ccco3)nn12", "Potency": "inconclusive [falling, single point]"}
{"molecule": "Cc1cccc(-c2nnc(SCC(=O)N3CCCc4ccccc43)o2)c1", "Potency": "inconclusive [falling, partial curve, poor fit]"}
{"molecule": "Cc1cccc(CS(=O)(=O)c2ncc(Cl)c(C(=O)Nc3nc4ccc(F)cc4s3)n2)c1", "Potency": "inconclusive [falling, single point]"}
{"molecule": "Cc1ccccc1NC(=O)CSc1nc2ccc(NC(=O)c3ccccc3)cc2s1", "Potency": "inconclusive [falling, single point]"}
{"molecule": "Cc1ccccc1CN1C(=O)C(O)(CC(=O)c2ccccc2)c2cc(Cl)ccc21", "note": "(configuration not stated)", "Potency": "active: 11.7 µM"}
{"molecule": "COc1ccc(NC(=O)Cn2cnc3ccc(S(=O)(=O)N4CCC(C)CC4)cc3c2=O)cc1Cl", "Potency": "inconclusive [falling, single point]"}
{"molecule": "Cc1cccc(Cn2c(=O)n(CCCC(=O)NCc3ccccc3Cl)c(=O)c3ccccc32)c1", "Potency": "inconclusive [falling, full curve, poor fit]"}
{"molecule": "Cc1cccc(CC(=O)N2CC(=O)Nc3ccc(C)cc3C2c2ccc(F)cc2)c1", "note": "(configuration not stated)", "Potency": "inactive"}
{"molecule": "CCCCNc1oc(-c2ccc(COc3ccccc3C)o2)nc1C#N", "Potency": "inconclusive [falling, single point]"}
{"molecule": "Cc1ccc(CNC(=O)c2cc3sccc3n2Cc2ccc(F)cc2)cc1", "Potency": "inactive"}
{"molecule": "Cc1ccc(Cn2c(=O)n(Cc3ccc(Cl)cc3)c(=O)c3cccnc32)cc1", "Potency": "inactive"}
{"molecule": "CC1CCc2c(sc(NC(=O)c3ccccc3)c2C(=O)Nc2ccccc2)C1", "note": "(configuration not stated)", "Potency": "inactive"}
{"molecule": "CCCCN(C)CCNC(=O)C1CCN(c2nc3ccc(CC)cc3s2)CC1", "Potency": "active: 11.7 µM"}
{"molecule": "COc1ccc(Cl)cc1NC(=O)C1CCN(c2ncnc3c2nc2n3CCCCC2)CC1", "Potency": "inactive"}
{"molecule": "Cc1cc(F)ccc1Nc1nc2ccccc2n2nnnc12", "Potency": "inactive"}
{"molecule": "CCN(c1ccccc1)c1nnc(NC(=O)Nc2cccc(C(F)(F)F)c2)s1", "Potency": "inactive"}
{"molecule": "COc1cc(OC)c(OC)cc1CN1CCc2nc(N3CCN(c4ncccn4)CC3)ncc2C1", "Potency": "inactive"}
{"molecule": "CCc1ccc(CNC(=O)c2ccc3c(c2)nc2n3CCOC2)cc1", "Potency": "inconclusive [falling, partial curve, poor fit]"}
{"molecule": "Cc1ccc2nc(/C(C#N)=C/c3ccc(-c4ccc(C(=O)OC(C)C)cc4)o3)[nH]c2c1", "Potency": "inactive"}
{"molecule": "CC(=O)N1c2ccc(S(=O)(=O)NCC3CCC(C(=O)Nc4cccc(C)c4)CC3)cc2CC1C", "note": "(configuration not stated)", "Potency": "inconclusive [falling, full curve]"}
{"molecule": "Cc1cc(N2CCN(C)CC2)nc2ccc(NC(=O)c3ccccc3F)cc12", "Potency": "inconclusive [falling, single point]"}
{"molecule": "O=C(CSc1nnc2[nH]c(=O)cc(-c3ccccc3)n12)Nc1ccccc1C(F)(F)F", "Potency": "inactive"}
